# Source: the supplement of paper PMC8285479
# Counter-ions that a name gives are not always drawn. ± gives the standard deviation of the averaged measurements. The full ranking holds about 1,900 compounds; the median of “normalised cell viability (NPI; 0 = phenylarsine oxide control, 1 = DMSO control)” is about 1, and the lowest 2% start at about 0.039. The list shows a part of the results.
# Test system: NCI-H1944
# Assay: normalised cell viability (NPI; 0 = phenylarsine oxide control, 1 = DMSO control) (fraction of DMSO control); NCI-H1944 is a non-small cell lung cancer line; higher = more viable cells (less compound toxicity)
# Conditions: 6 days
# [1] = glucocorticoid arm: hydrocortisone 2.75 uM co-treatment, compound 1 µM
# [2] = glucocorticoid arm: hydrocortisone 2.75 uM co-treatment, compound 5 µM
# [3] = glucocorticoid arm: hydrocortisone 2.75 uM pre-treated 2 days and continued, compound 1 µM
# [4] = glucocorticoid arm: hydrocortisone 2.75 uM pre-treated 2 days and continued, compound 5 µM
# [5] = glucocorticoid arm: vehicle, compound 1 µM
# [6] = glucocorticoid arm: vehicle, compound 5 µM
# 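Note: CTB read-out in 384-well plates, mean of triplicate wells, normalised per plate against 1 µM phenylarsine oxide and 0.1% DMSO, compounds added 24 h after seeding.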
SMILES,normalised cell viability [1],normalised cell viability [2],normalised cell viability [3],normalised cell viability [4],normalised cell viability [5],normalised cell viability [6]
C#CCN[C@H](C)Cc1ccccc1 [R-(-)-Desmethyldeprenyl hydrochloride],0.9987 ± 0.0015,1.001 ± 0.009,1.01,0.9983 ± 0.0015,0.9947 ± 0.0046,0.9967 ± 0.004
Cc1nnc2ccc(-c3cccc(C(F)(F)F)c3)nn12,1.01 ± 0.012,1.01 ± 0.01,1.01 ± 0.01,1.04 ± 0.088,0.9913 ± 0.0064,0.993 ± 0.015
C#C[C@]1(O)C=C[C@H]2[C@@H]3CCC4=CC(=O)CC[C@@H]4[C@H]3CC[C@@]21CC [Gestodene],1.01 ± 0.011,1.04 ± 0.015,1.02 ± 0.017,1.03 ± 0.017,1.003 ± 0.0064,0.9813 ± 0.0075
Cc1cccc([C@H](C)c2c[nH]cn2)c1C [Dexmedetomidine],1.02 ± 0.01,1.06 ± 0.023,1.01 ± 0.011,1.02 ± 0.025,1.013 ± 0.0058,1.03 ± 0.01
CC(C)(C)NCC(O)c1ccccc1Cl (configuration not stated) [Tulobuterol hydrochloride],0.9983 ± 0.0029,0.977 ± 0.022,0.932 ± 0.12,1.01 ± 0.012,0.98967 ± 0.00058,0.9967 ± 0.0042
CC1(C(=O)O)C2CCC(O2)C1(C)C(=O)O (configuration not stated) [Cantharidic Acid],0.983 ± 0.016,0.0223 ± 0.0017,1.06 ± 0.015,0.137 ± 0.087,0.965 ± 0.025,0.0108 ± 0.0036
Oc1ccc2c3c1O[C@H]1c4oc5ccccc5c4C[C@@]4(O)[C@@H](C2)N(CC2CC2)CC[C@]314 [Naltriben methanesulfonate],0.998 ± 0.0035,1.02 ± 0.025,1.01,1.09 ± 0.072,0.9913 ± 0.0049,1.01 ± 0.013
O=P1(NCCCl)OCCCN1CCCl (configuration not stated) [Ifosfamide],1.02 ± 0.01,0.986 ± 0.022,0.9973 ± 0.0046,0.994 ± 0.014,1.006 ± 0.0075,1.001 ± 0.0081
N#CCCN [3-Aminopropionitrile fumarate],0.9843 ± 0.0081,0.981 ± 0.017,0.978 ± 0.012,0.985 ± 0.018,0.983 ± 0.018,0.9823 ± 0.0025
NC(=O)CN1CCCC1=O [Piracetam],1.02 ± 0.01,1.027 ± 0.0058,1.017 ± 0.0058,1.027 ± 0.0058,1.007 ± 0.0058,1.01 ± 0.017
NCc1cc(O)no1 [Muscimol hydrobromide],1.006 ± 0.0069,0.993 ± 0.015,1.01 ± 0.013,0.992 ± 0.031,1.01,1.003 ± 0.0061
CC(=O)NBr [N-Bromoacetamide],0.992 ± 0.016,0.9953 ± 0.005,1 ± 0.017,1.025 ± 0.0071,0.9947 ± 0.0092,1.013 ± 0.0058
CC(C)NP(=O)(NC(C)C)OP(=O)(NC(C)C)NC(C)C [Tetraisopropyl pyrophosphoramide],1.01,1.01,1.03 ± 0.026,1.037 ± 0.0058,1.013 ± 0.0058,1.005 ± 0.0087
C=CCc1ccccc1OCC(O)CNC1(C)CCC(C(C)(C)NC(=O)CBr)CC1 (configuration not stated) [Bromoacetyl alprenolol menthane],0.9893 ± 0.0093,-0.000605 ± 0.0006,0.994 ± 0.016,0.0027 ± 0.0058,0.978 ± 0.004,-0.000518 ± 0.00015
Cc1c2ccncc2c(C)c2c1[nH]c1ccccc12 [Ellipticine],0.843 ± 0.013,0.381 ± 0.026,0.979 ± 0.013,1 ± 0.014,0.701 ± 0.032,0.23 ± 0.018
CN[C@@H]1C[C@H]2O[C@@](C)([C@@H]1OC)n1c3ccccc3c3c4c(c5c6ccccc6n2c5c31)C(=O)NC4 [Staurosporine],0.0825 ± 0.0098,0.0186 ± 0.003,0.246 ± 0.01,0.0923 ± 0.017,0.0216 ± 0.0022,0.00445 ± 0.0013
Cc1c(N)nc([C@H](CC(N)=O)NC[C@H](N)C(N)=O)nc1C(=O)N[C@H](C(=O)N[C@H](C)[C@@H](O)[C@H](C)C(=O)N[C@H](C(=O)NCCc1nc(-c2nc(C(=O)NCCC[S+](C)C)cs2)cs1)[C@@H](C)O)[C@@H](OC1OC(CO)C(O)C(O)C1OC1OC(CO)C(O)C(OC(N)=O)C1O)c1cnc[nH]1 (some centres not stated) [Bleomycin sulfate],0.669 ± 0.048,0.196 ± 0.017,0.9903 ± 0.0051,0.637 ± 0.034,0.142 ± 0.024,0.0339 ± 0.0093
O=C(O[C@H]1C[N+]2(CCCOc3ccccc3)CCC1CC2)C(O)(c1cccs1)c1cccs1 [Aclidinium Bromide],1.01 ± 0.017,0.975 ± 0.02,1.033 ± 0.0058,0.971 ± 0.034,0.9967 ± 0.0058,0.9883 ± 0.0051
Oc1ncc(N(CCCl)CCCl)c(O)n1 [Uracil mustard],0.972 ± 0.007,1.06 ± 0.011,1.043 ± 0.0058,1.033 ± 0.0058,0.244 ± 0.021,1.01 ± 0.011
NCCc1c[nH]c2ccccc12 [Tryptamine hydrochloride],1.01 ± 0.01,1.03 ± 0.015,0.9993 ± 0.0093,1.025 ± 0.0071,0.998 ± 0.011,0.99967 ± 0.00058
Cc1ccc(S(=O)(=O)N[C@@H](CCCCN)C(=O)CCl)cc1 [Na-p-Tosyl-L-lysine chloromethyl ketone hydrochloride],1.005 ± 0.0092,1.03 ± 0.026,0.859 ± 0.25,1.02 ± 0.011,1.01 ± 0.011,1.001 ± 0.0076
CCCN1CCC[C@@H](c2cccc(O)c2)C1 [S(-)-3PPP hydrochloride],0.987 ± 0.003,0.974 ± 0.015,1 ± 0.023,0.972 ± 0.023,0.9953 ± 0.0042,0.9813 ± 0.0076
Cc1cccc(C)c1NC1=NCCCS1 [Xylazine hydrochloride],1.017 ± 0.0058,1.013 ± 0.0058,0.929 ± 0.17,1.047 ± 0.0058,1.033 ± 0.0058,1.03
Cc1cccc(C)c1NC1=NCCCS1 [Xylazine HCl],1.03 ± 0.017,1.02 ± 0.011,1.017 ± 0.0058,1.01 ± 0.018,1.01,0.9963 ± 0.0047
Clc1ccc(N2CC3CCC(C2)N3)nn1,1.003 ± 0.0064,0.979 ± 0.012,0.9903 ± 0.0074,0.9827 ± 0.004,0.9863 ± 0.0075,0.9843 ± 0.0086
CCNC(=O)[C@H]1O[C@@H](n2cnc3c(N)ncnc32)[C@H](O)[C@@H]1O [5'-N-Ethylcarboxamidoadenosine],1.006 ± 0.0069,1.01 ± 0.011,1.007 ± 0.0058,1.01 ± 0.024,1.003 ± 0.0058,1.006 ± 0.0063
O=C1CCC[C@@H]2[C@H]3CCCN4CCC[C@@H](CN12)[C@@H]34 [(+)-Matrine],1.02 ± 0.01,1.02 ± 0.011,1.017 ± 0.0058,1.02 ± 0.017,0.999 ± 0.011,0.9893 ± 0.0059
